From PubChem BioAssay AID686979 (National Center for Advancing Translational Sciences (NCATS), 2013)
In all, about 420,000 compounds went through this assay and about 50,000 (12%) were called active. Inconclusive results, whose numbers are uncertain, are shown with a selection of clear calls. Calls come from the whole dose curve; as a rule, active = well fitted inhibition curve with a large enough effect; inconclusive = small, poorly fitted or top-dose-only effect; inactive = flat fitted curve, though single readings scatter. No potency is given beside an inconclusive call; the fits are too rough.

assay: qHTS for Inhibitors of human tyrosyl-DNA phosphodiesterase 1 (TDP1): qHTS in cells in presence of CPT; conditions: chicken DT40 Tdp1-/-;hTDP1 cells + 20 nM CPT, ATP luminescence, 48 h; activity change, negative = growth inhibition: at 46.2 µM (top of the series) unless noted; note: nearly all actives have a fitted effect of over 55% in size
How it was run: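 Chicken DT40 Tdp1-/- cells complemented with human TDP1, 400 cells/well, exposed to compounds plus 20 nM camptothecin for at least 48 h at 37 C; viability read as ATP content by CellTiter-Glo luminescence.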
% is set by controls: 0 for no effect and ±100 for the full control effect; potency is the fitted concentration of half-maximal effect; tags give direction and shape of the fitted curve.

Compound	Potency	activity change, negative = growth inhibition
Cc1ccccc1NC(=O)CCN1CCc2ccccc2C1	inconclusive [inhibitor, single point]	
CC(C)N(C(=O)[C@H]1C[C@H](CC(=O)NCCC2=CCCCC2)C(=O)N2CCc3c([nH]c4ccc(Cl)cc34)[C@]12C)C(C)C	active: 29.1 µM	
Cn1c(/C(C#N)=C(\O)c2ccc(S(=O)(=O)N3CCCCC3)cc2)nc2ccccc21	inconclusive [inhibitor, single point]	
CC(=O)c1cccc(NC(=S)NCCC2=CCCCC2)c1	active: 16.4 µM	
O=C(Cn1c(SCc2ccccc2F)nc2cccnc21)Nc1ccc(F)c(Cl)c1	inconclusive [inhibitor, single point]	
O=C(CSc1ccc(Cl)cc1)N1N=CCC1c1ccccc1 (stereo not drawn)	inconclusive [inhibitor, single point]	
CC(C)c1ccc(NC2CCCN(C(=O)c3ccccc3-c3ncc[nH]3)C2)cc1 (stereo not drawn)	inconclusive [inhibitor, single point]	
CCNC(=O)c1c2c(nc3ccccc13)C(=O)N(C1CCCCC1)C2		inactive: -18.8%
CCC(CO)Oc1cc(NC(=O)c2cccc(C)c2)c2ncn(C(C)C)c2c1 (stereo not drawn)	inconclusive [inhibitor, single point]	
N#Cc1ccc(Nc2nc(NCc3ccccc3)nc3ccsc23)cc1	active: 6.51 µM	
Cc1ccc(CN2C(=O)c3ccccc3Sc3ccc(C(=O)NC4CCCC4)cc32)cc1	inconclusive [inhibitor, single point]	
CN(C)CCNc1ncnc2c1ncn2[C@H]1CN(Cc2ccccc2)C[C@@H](CO)O1	inconclusive [inhibitor, single point]	
O=C(CCc1nnc(-c2ccc(-c3ccccc3)cc2)o1)N1CCCCC1	inconclusive [inhibitor, single point]	
CCN(Cc1ccccc1)C(=O)Cn1cc(S(=O)(=O)NC)c(S(=O)(=O)NC)c1		inactive: -3.29%
Cc1ncc(C(O)c2ccccc2)n1Cc1ccccc1 (stereo not drawn)		inconclusive: -34.5% [inhibitor]
COc1cccc(C(=O)NCCc2csc(-c3cccc(F)c3)n2)c1OC	inconclusive [inhibitor, single point]	
CC(CCc1ccccc1)NC(=O)CCNS(=O)(=O)c1ccccc1C(F)(F)F (stereo not drawn)	inconclusive [inhibitor, single point]	
O=C(NC1CC(=O)N(c2ccccc2)C1)c1ccco1 (stereo not drawn)		inactive: 9.32%
Cc1cccc2cc(CN(Cc3cccs3)C3(c4nnnn4C4CCCC4)CCCC3)c(=O)[nH]c12	inconclusive [inhibitor, single point]	
CCOC(=O)c1c(C)oc2c1c(/C=N/c1ccccn1)c(O)c1ccccc12	inconclusive [inhibitor, single point]	
Cc1cc(-c2ccc(S(=O)(=O)N3CCN(c4cccc(C(F)(F)F)c4)CC3)s2)on1		inactive: -22.2%
COc1ccc(NS(=O)(=O)c2cccc(NC(=O)COc3ccc(OC)cc3)c2)cc1	inconclusive [inhibitor, single point]	
CCC(CO)Nc1ccn2nc(-c3cc(OC)c(OC)c(OC)c3)cc2n1 (stereo not drawn)	inconclusive [inhibitor, partial curve]	

Compound	Potency	activity change, negative = growth inhibition
Cc1ccc(C(=O)N2CCc3cc(CNC(=O)CCc4ccccc4)ccc32)cc1	inconclusive [inhibitor, single point]	
CC(=O)C(=Nc1cccc(Cl)c1)NNc1ccccc1C	inconclusive [inhibitor, single point]	
CCc1cccc(NC(=O)CN(c2ccc(C)cc2)S(=O)(=O)c2cccs2)c1	inconclusive [inhibitor, single point]	
CCN(c1ccccc1)S(=O)(=O)c1cc(C(=O)O)ccc1C		inactive: 13.8%
COc1cccc(/C=N/N2CCN(c3ccc(Cl)cc3)CC2)c1OC		inconclusive: -35.6% [inhibitor]
Cc1csc(NC(=O)c2ccoc2C)n1	inconclusive [inhibitor, single point]	
Cn1cccc1C(=O)OCC(=O)NCCc1ccccc1		inactive: 6.72%
O=C1NC(=O)C(=Cc2ccc(Cl)cc2Cl)S1	inconclusive [inhibitor, single point]	
O=C(NCc1cccnc1)/C(=C\c1ccc(-c2ccc(Br)cc2)o1)S(=O)(=O)c1ccccc1	active: 2.91 µM	
C[C@H]1CN([C@@H](C)CO)C(=O)CCCn2cc(nn2)CO[C@@H]1CN(C)S(=O)(=O)c1ccc2c(c1)OCCCO2		inactive: 3.45%
COc1ccccc1OCC(=O)N(Cc1nc(-c2ccccc2)no1)C(C)C		inactive: -18.1%
Cc1cccc(NC(=O)c2ccc(OCc3c(C)noc3C)cc2)n1	inconclusive [inhibitor, single point]	
O=C(C[C@H]1C/C=C\C[C@@H](Cc2ccc(F)cc2)C(=O)O[C@@H](c2ccccc2)CNC1=O)NCCO		inactive: -10.6%
O=C(NCc1ccccc1)N1CCN(c2ccccc2F)CC1		inconclusive: -33.5% [inhibitor]
CC(=O)c1ccc(S(=O)(=O)Nc2ccc(S(=O)(=O)N3CCCCC3)cc2)cc1		inactive: -19.8%
O=C(Nc1nccs1)c1cncc(Br)c1		inactive: -8.48%
CC(C)(C)c1ccc(Oc2nc3ccccn3c(=O)c2/C=C(\C#N)c2nc3ccccc3s2)cc1	inconclusive [inhibitor, single point]	
CCOc1ccc(OCCn2c(SCC(=O)O)nc3ccccc32)cc1		inactive: -8.11%
Cc1ccc(-c2nc3ccc(Cl)cn3c2Nc2ccccc2)o1	inconclusive [inhibitor, partial curve, poor fit]	
Cc1cccn2c(=O)c(/C=C(\C#N)S(=O)(=O)c3ccccc3)c(N3CCCCC3)nc12	inconclusive [inhibitor, single point]	
O=C(CN1CCN(c2ccccn2)CC1)Nc1cccc(S(=O)(=O)N2CCOCC2)c1	inconclusive [inhibitor, single point]	
O=C(CC(CC(=O)c1ccccc1)c1ccco1)c1ccccc1	inconclusive [inhibitor, single point]	
CCc1ccc(NC(=O)CC2C(=O)N(c3ccc(C)cc3)C(=O)N2C2CCCC2)cc1 (stereo not drawn)	inconclusive [inhibitor, single point]	

Compound	Potency	activity change, negative = growth inhibition
CCc1ccccc1Oc1nc(NCCOC)nc2cc(-c3ccccc3)sc12	inconclusive [inhibitor, single point]	
Cc1cc(C)cc(NC(=O)CSc2nc(=O)[nH]c3c2CCC3)c1	inconclusive [inhibitor, single point]	
O=C(C[C@@H]1C/C=C/CCCC(=O)O[C@H](c2ccccc2)CNC1=O)N[C@H](CO)Cc1ccccc1	inconclusive [inhibitor, single point]	
COc1cccc(CN2CCN(C3CCN(c4ccccc4F)CC3)CC2CCO)c1 (stereo not drawn)	inconclusive [inhibitor, single point]	
CC(C)CN(CCNC(=O)c1cn(C)c2ccc(S(=O)(=O)N3CCCCCC3)cc2c1=O)CC(C)C		inactive: 7.4%
CSCCC(=O)Nc1nc(-c2ccccn2)cs1	active: 16.4 µM	
C=CCN1C(C(=O)c2ccccc2)=C(OC(=O)COc2ccccc2)c2ccccc2S1(=O)=O	inconclusive [inhibitor, single point]	
Oc1ccc(-c2nnc(SCC3CCCCC3)o2)cc1	inconclusive [inhibitor, single point]	
CN(c1ccccc1)S(=O)(=O)c1cccc(C(=O)NNC(=O)c2ccccc2)c1	active: 16.4 µM	
Cc1c(C(=O)NCC2(c3ccccc3)CCOCC2)cnn1-c1nccc(-c2ccco2)n1	inconclusive [inhibitor, single point]	
CC1CCN(c2ccccc2NC(=S)NC(=O)c2ccco2)CC1	inconclusive [inhibitor, single point]	
CN1OC[C@@H]2CN(S(=O)(=O)c3cccc(C(F)(F)F)c3)[C@H](c3ccc(N4CCCCC4)cc3)C[C@@H]21	inconclusive [inhibitor, single point]	
O=c1cc(-c2cc(O)c(O)c(O)c2)oc2cc(O)cc(O)c12	inconclusive [inhibitor, single point]	
CN(C)S(=O)(=O)c1ccc(-c2cn3ccccc3n2)cc1		inactive: -29.5%
CCCN(CC(=O)Nc1ccccc1C)C(=O)Cc1coc2cc(C)ccc12		inactive: -11.1%
Cc1ccc(NC(=O)C(Cc2ccccc2)NS(=O)(=O)c2ccc3c(c2)CCC(=O)N3)cc1 (stereo not drawn)		inactive: 2.22%
Cc1ccc(NC(=O)C(=O)NCC(c2ccc3c(c2)OCO3)N2CCN(C)CC2)c(C)c1 (stereo not drawn)	inconclusive [inhibitor, single point]	
Cc1cc(C)cc(NC(=O)CSc2nc3ncccc3[nH]2)c1	inconclusive [inhibitor, single point]	
O=C(Nc1ccc(S(=O)(=O)N2CCOCC2)cc1)c1ccc2ncsc2c1	inconclusive [inhibitor, single point]	
C=CCNC(=O)c1ccc([N+](=O)[O-])c(Cl)c1		inactive: -0.0487%
Clc1ccc2c(N/N=C/c3ccccc3Br)ccnc2c1	active: 7.31 µM	
C=CCOC(=O)C1=C[C@H](c2cn(C(C)=O)c3ccccc23)[C@@H](CCCO)[C@H](OCC)O1	inconclusive [inhibitor, single point]	
